Measured values taken from the supplement of paper PMC8728848.
The list shows a part of the results.

Assays:
Assay in all cases: glycan array binding signal (z-score within array); higher = stronger binding
Conditions in all cases: glycan notation: IUPAC condensed, linker removed
[1] = target: Gal3S6S(b1-4)GlcNAc6S
Outline: (§1)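 Glycan array binding is given as a within-array Z-score, which can be read as non-binding when negative. The arrays, 3228 of them, came from the Consortium for Functional Glycomics database and were retained only where the protein sequence was available. Z-scores were averaged across arrays of the same protein sequence at different concentrations or buffers and across linkers.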

[2] = target: Gal4S(b1-4)GlcNAc
Outline: as §1

[3] = target: Gal4S6S(b1-4)GlcNAc
Outline: as §1

[4] = target: Gal6S(b1-4)Glc
Outline: as §1

[5] = target: Gal6S(b1-4)Glc6S
Outline: as §1

[6] = target: Gal6S(b1-4)GlcNAc
Outline: as §1

[7] = target: Gal6S(b1-4)GlcNAc6S
Outline: as §1

[8] = target: GalNAc(a1-3)Gal
Outline: as §1

[9] = target: GalNAc(a1-3)GalNAc
Outline: as §1

[10] = target: GalNAc(b1-3)Gal
Outline: as §1

[11] = target: GalNAc(b1-3)Gal(a1-4)Gal(b1-4)GlcNAc
Outline: as §1

[12] = target: GalNAc(b1-3)Gal(a1-4)Gal(b1-4)GlcNAc(b1-3)Gal(b1-4)Glc
Outline: as §1

[13] = target: GalNAc(b1-3)GalNAc
Outline: as §1

[14] = target: GalNAc(b1-4)GlcNAc
Outline: as §1

[15] = target: GalNAc(b1-4)GlcNAc(b1-2)Man(a1-3)[GalNAc(b1-4)GlcNAc(b1-2)Man(a1-6)]Man(b1-4)GlcNAc(b1-4)GlcNAc
Outline: as §1

[16] = target: Glc(a1-4)Glc
Outline: as §1

[17] = target: Glc(a1-6)Glc(a1-6)Glc
Outline: as §1

[18] = target: Glc(b1-4)Glc
Outline: as §1

[19] = target: Glc(b1-6)Glc
Outline: as §1

[20] = target: GlcA(b1-3)Gal
Outline: as §1

[21] = target: GlcA(b1-3)GlcNAc
Outline: as §1

[22] = target: GlcA(b1-6)Gal
Outline: as §1

[23] = target: GlcNAc(a1-3)Gal(b1-4)GlcNAc
Outline: as §1

[24] = target: GlcNAc(a1-4)Gal(b1-3)GlcNAc
Outline: as §1

[25] = target: GlcNAc(a1-4)Gal(b1-4)GalNAc
Outline: as §1

[26] = target: GlcNAc(a1-4)Gal(b1-4)GlcNAc
Outline: as §1

[27] = target: GlcNAc(a1-4)Gal(b1-4)GlcNAc(b1-3)Gal(b1-4)Glc
Outline: as §1

[28] = target: GlcNAc(a1-4)Gal(b1-4)GlcNAc(b1-3)Gal(b1-4)GlcNAc
Outline: as §1

[29] = target: GlcNAc(a1-4)Gal(b1-4)GlcNAc(b1-3)Gal(b1-4)GlcNAc(b1-3)Gal(b1-4)GlcNAc
Outline: as §1

[30] = target: GlcNAc(a1-4)Gal(b1-4)GlcNAc(b1-3)Gal(b1-4)[Fuc(a1-3)]GlcNAc(b1-3)Gal(b1-4)[Fuc(a1-3)]GlcNAc
Outline: as §1

[31] = target: GlcNAc(a1-6)Gal(b1-4)GlcNAc
Outline: as §1

[32] = target: GlcNAc(b1-2)Gal(b1-3)GalNAc
Outline: as §1

[33] = target: GlcNAc(b1-2)Man(a1-3)[GlcNAc(b1-2)Man(a1-6)]Man(b1-4)GlcNAc(b1-4)GlcNAc
Outline: as §1

[34] = target: GlcNAc(b1-2)Man(a1-3)[GlcNAc(b1-2)Man(a1-6)]Man(b1-4)GlcNAc(b1-4)[Fuc(a1-6)]GlcNAc
Outline: as §1

[35] = target: GlcNAc(b1-3)Gal
Outline: as §1

[36] = target: GlcNAc(b1-3)Gal(b1-3)GalNAc
Outline: as §1

[37] = target: GlcNAc(b1-3)Gal(b1-4)Glc
Outline: as §1

[38] = target: GlcNAc(b1-3)Gal(b1-4)GlcNAc
Outline: as §1

[39] = target: GlcNAc(b1-3)Gal(b1-4)GlcNAc(b1-3)Gal(b1-4)GlcNAc
Outline: as §1

[40] = target: GlcNAc(b1-3)GalNAc
Outline: as §1

[41] = target: GlcNAc(b1-3)Man
Outline: as §1

[42] = target: GlcNAc(b1-3)[GlcNAc(b1-4)][GlcNAc(b1-6)]GlcNAc
Outline: as §1

[43] = target: GlcNAc(b1-3)[GlcNAc(b1-6)]Gal(b1-4)GlcNAc
Outline: as §1

[44] = target: GlcNAc(b1-3)[GlcNAc(b1-6)]GalNAc
Outline: as §1

[45] = target: GlcNAc(b1-4)Gal(b1-4)GlcNAc
Outline: as §1

B1: DC-ASPGR (Homo sapiens), CLC10_HUMAN (protein)
chain: LDQNSKFQRDLVTLRTDFSNFTSNTVAEIQALTSQGSSLEETIASLKAEVEGFKQERQAVHSEMLLRVQQLVQDLKKLTCQVATLNNNASTEGTCCPVNWVEHQDSCYWFSHSGMSWAEAEKYCQLKNAHLVVINSREEQNFVQKYLGSAYTWMGLSDPEGAWKWVDGTDYATGFQNWKPGQPDDWQGHGLGGGEDCAHFHPDGRWNDDVCQRPYHWVCEAGLGQTSQESHVEPKSCDKTHTCPPCPAPELLGGPSVFLFPPKPKDTLMISRTPEVTCVVVDVSHEDPEVKFNWYVDGVEVHNAKTKPREEQFNSTYRVVSVLTVLHQDWLNGKEYKCKVSNKGLPSSIEKTISKAKGQPREPQVYTLPPSQEEMTKNQVSLTCLVKGFYPSDIAVEWESNGQPENNYKTTPPVLDSDGSFFLYSRLTVDKSRWQEGNVFSCSVMHEALHNHYTQK
[1]
  glycan array binding signal (z-score): -0.248
[2]
  glycan array binding signal (z-score): -0.079
[3]
  glycan array binding signal (z-score): 0.091
[4]
  glycan array binding signal (z-score): -0.271
[5]
  glycan array binding signal (z-score): -0.166
[6]
  glycan array binding signal (z-score): -0.069
[7]
  glycan array binding signal (z-score): -0.161
[8]
  glycan array binding signal (z-score): 1.74
[9]
  glycan array binding signal (z-score): 0.117
[10]
  glycan array binding signal (z-score): 1.31
[11]
  glycan array binding signal (z-score): 1.9
[12]
  glycan array binding signal (z-score): 0.569
[13]
  glycan array binding signal (z-score): -0.287
[14]
  glycan array binding signal (z-score): 2.66
[15]
  glycan array binding signal (z-score): -0.086
[16]
  glycan array binding signal (z-score): 5.49
[17]
  glycan array binding signal (z-score): -0.31
[18]
  glycan array binding signal (z-score): -0.27
[19]
  glycan array binding signal (z-score): -0.204
[20]
  glycan array binding signal (z-score): -0.276
[21]
  glycan array binding signal (z-score): -0.208
[22]
  glycan array binding signal (z-score): -0.283
[23]
  glycan array binding signal (z-score): -0.245
[24]
  glycan array binding signal (z-score): -0.216
[25]
  glycan array binding signal (z-score): -0.221
[26]
  glycan array binding signal (z-score): -0.189
[27]
  glycan array binding signal (z-score): -0.215
[28]
  glycan array binding signal (z-score): -0.092
[29]
  glycan array binding signal (z-score): -0.123
[30]
  glycan array binding signal (z-score): 0.217
[31]
  glycan array binding signal (z-score): -0.268
[32]
  glycan array binding signal (z-score): -0.246
[33]
  glycan array binding signal (z-score): -0.217
[34]
  glycan array binding signal (z-score): -0.328
[35]
  glycan array binding signal (z-score): -0.264
[36]
  glycan array binding signal (z-score): -0.018
[37]
  glycan array binding signal (z-score): -0.257
[38]
  glycan array binding signal (z-score): -0.211
[39]
  glycan array binding signal (z-score): -0.206
[40]
  glycan array binding signal (z-score): -0.27
[41]
  glycan array binding signal (z-score): -0.273
[42]
  glycan array binding signal (z-score): -0.271
[43]
  glycan array binding signal (z-score): -0.173
[44]
  glycan array binding signal (z-score): -0.295
[45]
  glycan array binding signal (z-score): -0.246
